Data reported in PubChem BioAssay AID652104 (National Center for Advancing Translational Sciences (NCATS), 2013).
Hit rate of the full screen: of about 410,000 compounds, about 7,200 (1.8%) were called active. The shares of active, inactive and inconclusive entries below differ from those in the screen. The call rests on the fitted dose curve; in most records, active means well fitted activation curve with a large enough effect; inconclusive means small, poorly fitted or top-dose-only effect, or another doubt; inactive means no such curve, though single readings can be large or run the other way. Potencies of inconclusive entries are left out as doubtful fits.

Experiment: qHTS of TDP-43 Inhibitors; further: nearly all actives have a fitted effect of over 50% in size; on growth rescue (activation): % of control where 0% means no effect
Conditions: TDP-43 expressing yeast growth rescue, BacTiter-Glo, 24 h; growth rescue (activation): at 46.1 µM (top of the series) unless noted
Summary of the method: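 Cell-based yeast growth screen: TDP-43 expression induced in galactose, inoculum OD600=0.02 after raffinose pregrowth to mid-log. Read-out BacTiter-Glo luminescence at 24 hr, 30 deg C; inhibition of toxicity seen as signal increase.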
Potency means the concentration at half of the fitted maximal effect; tags describe the fitted curve by direction and shape.

SMILES	Potency	growth rescue (activation)
Cc1ccc(/C(N)=N/OC(=O)Cc2cccc3ccccc23)cc1	active: 14.1 µM	–
COc1cc(-c2ccc3oc(-c4ccsc4)c(C#CC4(O)CCCCC4)c3c2)cc(OC)c1OC	–	inactive: 28.3%
Cc1cc(=O)n(CC(=O)NC(C)c2ccccc2)c2c1c(C)nn2C (stereo not drawn)	inconclusive [activator, single point]	–
CCCCCCCCN1C(=O)[C@H](CC(=O)NCCCC)C[C@@]2(C(=O)OC)CCCCC=C12	inconclusive [activator, partial curve]	–
Cc1ccc(C(C)C)c2oc(=O)cc(-c3ccc(-c4ccc(C(F)(F)F)cc4)cc3)c12	–	inactive: 14.6%
O=C(NCC(O)c1ccccc1)c1cccc(S(=O)(=O)N2CCOCC2)c1 (stereo not drawn)	–	inactive: 11.5%
COc1ccccc1-c1csc(C(O)c2ccccc2)n1 (stereo not drawn)	inconclusive [activator, single point]	–
Fc1ccc2[nH]c3c(NCCN4CCOCC4)ncnc3c2c1	–	inactive: 3.67%
CCCN(CC1CC1)C(=S)Nc1ccc(Oc2ccccc2)cc1	active: 20 µM	–
CCCOc1ccc(CN(CCC#N)C(=S)NC(=O)c2ccccc2)cc1	inconclusive [activator, partial curve]	–
COc1ccc(/C=C/C(=O)c2cc(F)ccc2OC(=O)c2ccc(OC)c(OC)c2)cc1OC	inconclusive [activator, single point]	–
CCOC1=C2[C@H](c3ccccc3)N(S(=O)(=O)c3ccc(C)cc3)C(C(C)(C)C)[C@H]2C(C#N)(C#N)C(C#N)(C#N)C1 (stereo partly drawn)	inconclusive [activator, partial curve, poor fit]	–
COc1ccc(N2CCN(C(=O)c3ccc4c(=O)n5c(nc4c3)CCCCC5)CC2)cc1	–	inactive: 18.1%
Cc1cccc(NC(=S)NC(=O)CCc2ccccc2)c1C	–	inactive: -0.864%
CCN(CC(=O)Nc1cc(Cl)ccc1C)C(=O)CCOc1ccccc1C	inconclusive [activator, single point]	–
O=C(NCc1ccc(F)cc1)C(=O)NCC(c1ccco1)S(=O)(=O)c1cccs1 (stereo not drawn)	–	inactive: 4.44%
CCCCC(=O)NC(=S)Nc1cc([N+](=O)[O-])ccc1OC	active: 7.08 µM	–
CCN(C(=O)CN1CCN(Cc2ccccc2)CC1)c1c(N)n(Cc2ccccc2)c(=O)[nH]c1=O	inconclusive [activator, full curve, poor fit]	–
Cn1c(=O)n(C)c2cc(NS(=O)(=O)c3ccc(C(C)(C)C)cc3)c(NCc3ccccc3)cc21	–	inactive: -11.7%
CC[C@]12c3[nH]c4cc(CCC(=O)N(C)C)ccc4c3CCN1C(=O)[C@@H](CC(=O)NC(C)(C)C)C[C@@H]2C(=O)N1CCN(C(=O)C2CC2)CC1	–	inactive: 11.9%
Cc1ccc(Nc2nc(C)c(NC(=O)c3ccc(C)cc3)c(Nc3ccc(C)cc3)n2)cc1	–	inactive: -2.51%
CS(=O)(=O)N1CCN=C1SCc1ccc([N+](=O)[O-])cc1	inconclusive [activator, partial curve]	–
CCc1cccc(C)c1NC(=O)C(CC)Sc1nncn2c1cc1occc12 (stereo not drawn)	active: 14.1 µM	–
CCOCCn1c2ccccc2c2nc3ccccc3nc21	inconclusive [activator, single point]	–
O=C(N/N=C/c1ccc(O)c(O)c1)C1c2ccccc2Oc2ccccc21	inconclusive [activator, single point]	–

SMILES	Potency	growth rescue (activation)
CCOC(=O)C(=CNNc1cccc(Cl)c1)C(=O)OCC	active: 11.2 µM	–
COc1ccc(NC(=O)CC2C(=O)N(c3ccc(C)cc3)C(=O)N2Cc2ccc(C)cc2)cc1 (stereo not drawn)	–	inactive: 2.4%
CC(=O)c1cc2c(cc1NC(=O)CCc1ccccc1)OCO2	inconclusive [activator, single point]	–
CC(Oc1ccc2ccc(=O)oc2c1)C(=O)NC(Cc1c[nH]c2ccc(O)cc12)C(=O)O (stereo not drawn)	inconclusive [activator, full curve, poor fit]	–
Cc1cccc(Nc2nc(-c3ccc(F)c(C)c3)cs2)n1	active: 14.1 µM	–
CCCCOc1ccccc1NC(=O)CSc1nnnn1C(C)(C)C	inconclusive [activator, partial curve]	–
Nc1ncnc2c1ncn2[C@@H]1O[C@H](C(=O)Nc2ccc(Oc3ccccc3)nc2)[C@@H](O)[C@H]1O	–	inactive: 14.2%
CCOC(=O)c1c(C)oc2nc(C)nc(NCc3ccc(OC)cc3)c12	–	inactive: 14.1%
O=C(Nc1nonc1-c1ccc(Cl)cc1)c1ccco1	inconclusive [activator, single point]	–
CCCc1cc(=O)[nH]c(Nc2ccc(C)c(O)c2)n1	–	inactive: 9.97%
COC(=O)c1cccc(CN2C(=O)SC(Nc3ccc(Cl)cc3)C2=O)c1 (stereo not drawn)	active: 15.8 µM	–
O=C(COC(=O)c1cc([N+](=O)[O-])ccc1N1CCOCC1)NCc1ccc(Cl)cc1Cl	inconclusive [activator, single point]	–
CCCNC(=O)c1oc2ccc3c(c2c1C)C=CC(C)(C)O3	inconclusive [activator, single point]	–
COC(C/C=C/C(=O)[C@@H](C)OCc1ccccc1)OC	active: 20 µM	–
COC(=O)c1cn(NC(=O)CC2CCCCC2)c(=O)c2ccccc12	inconclusive [activator, partial curve, poor fit]	–
COc1ccc2c(c1)CCC(=O)[C@H](O)C[C@H](c1ccccc1)OC2=O	inconclusive [activator, single point]	–
CCCCNc1c(-c2ccc(SC(C)CC)c(OC)c2)nc2ccc(C)cn12 (stereo not drawn)	–	inactive: -93.3%
Cc1nn(-c2ccccc2)c2sc(C(=O)Nc3cccc(Br)c3)cc12	inconclusive [activator, full curve]	–
COc1cccc(Nc2c3c(nc4c(-c5ccccc5)c(C)nn24)CCC3)c1	inconclusive [activator, single point]	–
Cc1nnc(Sc2nc3ccccc3o2)c2ccccc12	active: 14.1 µM	–
CCOc1ccc(OCCN2C(=O)NC3(CCCc4ccccc43)C2=O)cc1 (stereo not drawn)	active: 35.5 µM	–
Fc1ccc(CNC(=S)Nc2cccc(C(F)(F)F)c2)cc1	inconclusive [activator, single point]	–
O=C(c1ccc(Br)o1)N1CCC(Cc2ccccc2)CC1	inconclusive [activator, partial curve]	–
N/C(=N\OC(=O)CCC1CCCCC1)c1ccc([N+](=O)[O-])cc1	active: 20 µM	–
Cc1nc2ccc(N)cc2c(=O)n1Cc1ccc(Cl)cc1	–	inactive: 7.67%

SMILES	Potency	growth rescue (activation)
Cc1cccc(COC[C@H](CC(C)C)N2CCN(C(=O)c3ccc(C(C)(C)C)cc3)CCC2=O)c1	active: 22.4 µM	–
Cc1nc(-c2ccc(F)cc2)sc1CCNC(=O)c1ccc(C(C)(C)C)cc1	–	inactive: -2.63%
COCCCN1C(=O)c2ccc(C(=O)OCC(=O)NCc3cccc(OC)c3)cc2C1=O	–	inactive: 19.4%
CCCCc1nn2c(=O)cc(COC(=O)c3ccccc3NC(=O)c3cccc(C)c3)nc2s1	–	inactive: 12.1%
O=C(Oc1cccc(-n2cnnn2)c1)C1CCCCC1	active: 11.2 µM	–
CCCN(CC(=O)Nc1cccc(S(N)(=O)=O)c1)CC(=O)Nc1ccc(F)c(F)c1F	–	inactive: 7.22%
COC(=O)c1c(-c2ccccc2OC)sc2ccccc12	inconclusive [activator, partial curve]	–
O=C(COc1ccc(S(=O)(=O)N2CCCC2)cc1)NCc1ccccn1	–	inactive: -20.4%
COc1ccccc1-c1nnc(C2CCN(S(=O)(=O)c3ccc(F)c(C)c3)CC2)o1	inconclusive [activator, single point]	–
COc1ccc(OC)c(Nc2cc3ccccc3c(=O)[nH]2)c1	inconclusive [activator, single point]	–
Cc1ccc(S(=O)(=O)CCC(=O)N2CCN(c3ccc([N+](=O)[O-])cc3)CC2)cc1	inconclusive [activator, single point]	–
CN(c1ccc(Cl)cc1)c1cc2c(c3c1ccn3C)C1CCC2C1 (stereo not drawn)	inconclusive [activator, single point]	–
CC(C)N(C(=S)Nc1cc(S(=O)(=O)N2CCOCC2)ccc1Cl)c1ccccc1	inconclusive [activator, partial curve]	–
COc1ccc(-n2c3c(cc(-c4nc(-c5ccc(Cl)cc5)cs4)c2=O)C(=O)CC(C)(C)C3)cc1Cl	inconclusive [activator, partial curve]	–
COc1ccc(OC)c(NC(=O)N2CCN(Cc3nc4ccc(C)cc4o3)CC2)c1	inconclusive [activator, single point]	–
C/C=C/C1=CC(=O)C[C@H](c2ccc3c(c2)OCO3)C1	active: 11.2 µM	–
O=C1CSC(=S)N1Cc1cccnc1	inconclusive [activator, single point]	–
CCCCn1c(SCC(=O)N2CCN(c3ccccc3)CC2)nc2ccsc2c1=O	inconclusive [activator, single point]	–
Cc1ccc(CSCC(=O)Nc2ccccc2)cc1	inconclusive [activator, partial curve]	–
Cc1cccc(NC(=O)COC(=O)CN2C(=O)c3ccccc3C2=O)c1C	–	inactive: 14.3%
O=C(CNS(=O)(=O)c1cccc(Cl)c1)Nc1ccc(-c2nc3ccccc3s2)cc1	–	inactive: 20.8%
NC(=S)NN=C(c1ccccc1)c1ccccc1	active: 12.6 µM	–
O=Nc1ccc(NOC(=O)c2ccccc2Br)cc1	inconclusive [activator, single point]	–
